The campaign covered roughly 270,000 compounds. About 5,800 (2.1%) were called active. Entries that show only a call come without a potency. This list was built around the results that the source calls inconclusive (neither active nor inactive); the mix of calls is not that of the screen. The call rests on the fitted dose curve; in most records, active means well fitted inhibition curve with a large enough effect; inconclusive means small, poorly fitted or top-dose-only effect; inactive means flat fitted curve, though single readings scatter. Potencies of inconclusive entries are doubtful fits and often do not repeat.
What follows are compounds tested against Microtubule-associated protein tau (Homo sapiens) (UniProt P10636) (assay: qHTS for Inhibitors of Tau Fibril Formation, Thioflavin T Binding). Conditions: recombinant tau K18 P301L (four-repeat tau fragment), heparin-induced fibrillization, ThT fluorescence; series mostly up to 57.4 µM.
Method in brief: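 Tau K18 P301L fragment (15 uM unlabeled plus 0.24 uM Alexa 594-labeled) in 100 mM sodium acetate pH 7 with compound, fibrillization induced by 20 uM heparin for 6 hr at 37 C. Thioflavin T (30 uM) added, fluorescence read after 1 hr (ex 450, em 510 nm).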
Further: nearly all actives have a fitted effect of over 55% in size.
Potency means the concentration at half of the fitted maximal effect; tags describe the fitted curve by direction and shape.

UniProt P10636, sequence (P10636 whole entry, looked up, the tested form may be a part): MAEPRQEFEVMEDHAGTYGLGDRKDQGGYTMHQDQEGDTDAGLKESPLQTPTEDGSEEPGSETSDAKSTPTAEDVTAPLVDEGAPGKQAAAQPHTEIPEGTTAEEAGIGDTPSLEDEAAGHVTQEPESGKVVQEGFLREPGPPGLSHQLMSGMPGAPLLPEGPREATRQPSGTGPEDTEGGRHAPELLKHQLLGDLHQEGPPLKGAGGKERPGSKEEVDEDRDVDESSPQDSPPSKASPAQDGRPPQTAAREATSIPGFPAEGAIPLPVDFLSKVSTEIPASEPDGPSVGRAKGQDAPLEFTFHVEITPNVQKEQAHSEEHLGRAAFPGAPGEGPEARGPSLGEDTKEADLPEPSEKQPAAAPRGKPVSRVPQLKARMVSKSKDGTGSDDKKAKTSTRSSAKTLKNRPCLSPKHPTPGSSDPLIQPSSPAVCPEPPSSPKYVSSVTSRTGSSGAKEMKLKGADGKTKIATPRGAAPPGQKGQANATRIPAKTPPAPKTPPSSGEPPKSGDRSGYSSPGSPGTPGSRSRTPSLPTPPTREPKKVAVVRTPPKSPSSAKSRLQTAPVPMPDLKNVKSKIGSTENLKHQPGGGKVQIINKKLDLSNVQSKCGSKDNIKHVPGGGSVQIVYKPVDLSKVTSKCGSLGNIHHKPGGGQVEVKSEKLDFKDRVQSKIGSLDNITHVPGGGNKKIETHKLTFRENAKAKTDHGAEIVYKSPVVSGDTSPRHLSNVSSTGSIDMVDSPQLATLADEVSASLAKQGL

Structure (SMILES) | Potency
Cc1ccc(-c2c(C)n3c4c(=O)n(C)c(=O)n(C)c4nc3n2-c2cccc(O)c2)cc1 | inconclusive: 1.58 µM [inhibitor, full curve, poor fit]
CN(C)/C=C(/C#N)C(=O)c1cccc(Oc2ccc(C(C)(C)C)cc2)c1 | inactive
S=C(c1ccc(-c2cc(Cl)ccc2Cl)o1)N1CCOCC1 | inconclusive: 15.8 µM [inhibitor, partial curve]
COc1ccc(OC2C(=O)N(c3ccc(C)c(C)c3)C2c2ccc(OC)c(OC)c2)cc1 (stereo not given) | inactive
CCOC(=O)/C(=N/Nc1ccc(Cl)cc1)S(=O)(=O)c1ccc(Cl)cc1 | inactive
CC(CNc1ccc([N+](=O)[O-])cc1)NC(=O)c1ccccc1Br (stereo not given) | inconclusive: 35.5 µM [inhibitor, single point]
Cc1cc(N2CCC(C)CC2)n2ncc(-c3ccccc3)c2n1 | inconclusive: 25.1 µM [inhibitor, partial curve]
CCC(Oc1ccccc1)C(=O)Nc1ncc([N+](=O)[O-])s1 (stereo not given) | inconclusive: 20 µM [inhibitor, partial curve]
Cc1nc(C)c(-c2csc(NCc3ccco3)n2)s1 | inconclusive: 35.5 µM [inhibitor, single point]
Cc1c2ccccc2nc2c(F)c(NC(C)C)c(F)c(F)c12 | inconclusive: 14.1 µM [inhibitor, partial curve]
CC[C@H](C)[C@@H]1NC(=O)c2cc([N+](=O)[O-])cc(I)c2SC[C@@H](C(N)=O)NC(=O)[C@H](CCCCN)NC1=O | inconclusive: 31.6 µM [inhibitor, partial curve]
COc1ccccc1Nc1ccc(C(=O)NC2CCCCC2)cn1 | inactive
CCCCOC(=O)CSc1nc(N)c(C#N)c(-c2ccc(OC)cc2)c1C#N | inactive
CC(C(=O)Nc1ccccc1-c1ccccc1)N1CCN(Cc2ccccc2)CC1 (stereo not given) | inactive
Cc1c(C(=O)N/N=C/c2ccc(-c3ccccc3[N+](=O)[O-])o2)sc(N)c1C#N | inconclusive: 5.01 µM [inhibitor, partial curve]
CC(=O)c1ccc(NC(=O)CCc2c(C)nc3cc(-c4ccc(Cl)cc4)nn3c2C)cc1 | inactive
O=C(NCCSc1c(-c2ccc(F)cc2)[nH]c2ccccc12)c1ccc(S(=O)(=O)N2CCOCC2)cc1 | inactive
COc1cccc(NC(=O)C2CCN(C(=O)N3CC(C)Oc4ccccc43)CC2)c1 (stereo not given) | inactive
O=c1[nH]cnc2scc(-c3ccc(Br)cc3)c12 | inactive
O=C1C2CC=C(Cl)CC2C(=O)N1CC1Cc2ccccc2CO1 (stereo not given) | inconclusive: 20 µM [inhibitor, partial curve]

— PubChem BioAssay AID1460 (National Center for Advancing Translational Sciences (NCATS), 2008)
